# Assay results: the supplement of paper PMC11166567
# This is one part of the list.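 The calls were made as follows: active = permutation test q below 0.05 after Benjamini-Hochberg correction; inactive = q of 0.05 or more.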
# Tested on: A549
# Assay: mean average precision of replicate retrieval against DMSO controls (Cell Painting phenotypic activity) (fraction (0-1)); higher = stronger, more reproducible morphological phenotype distinct from DMSO; extreme values may be limits of the assay
# Conditions: 24 h; 5 µM
# 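Also: cosine similarity of well-level aggregated Cell Painting profiles ranks each compound's replicate wells against DMSO wells, four replicate plates, significance from 100,000 rank shuffles.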
row,SMILES,mean average precision
1,O=C(O)c1ccccc1O,active: 0.379
2,CO[C@H]1C=CO[C@@]2(C)Oc3c(C)c(O)c4c(O)c(cc(O)c4c3C2=O)NC(=O)/C(C)=C\C=C/[C@H](C)[C@H](O)[C@@H](C)[C@@H](O)[C@@H](C)[C@H](OC(C)=O)[C@@H]1C,active: 0.398
3,Nc1ncn([C@@H]2O[C@H](CO)[C@@H](O)[C@H]2O)c(=O)n1,active: 1
4,OCCn1cc(-c2cnc3nnn(Cc4ccc5ncccc5c4)c3n2)cn1,inactive: 0.264
5,C[S+]([O-])c1ccc(-c2nc(-c3ccc(F)cc3)c(-c3ccncc3)[nH]2)cc1 (stereo not given),active: 1
6,NC(=O)CC[C@H](N)C(=O)O,inactive: 0.135
7,OC(CN1CCNCC1)Cn1c2ccc(Br)cc2c2cc(Br)ccc21 (stereo not given),active: 1
8,CCOC(=O)c1c2c3c(cccc3[nH]c1=O)C(=O)c1ccccc1-2,active: 0.481
9,CC(C)CC(=O)Nc1n[nH]c2c1CN(C(=O)C1CCN(C)CC1)C2(C)C,active: 0.828
10,Nc1ncnc2c1c(-c1cccc(OCc3ccccc3)c1)cn2C1CC(CN2CCCC2)C1 (stereo not given),active: 1
11,Cc1[nH]c(/C=C2\C(=O)Nc3ccccc32)c(C)c1CCC(=O)O,active: 0.483
12,CNC(=O)[C@H](Cc1ccccc1)NC(=O)[C@H](CC(C)C)[C@H](CSc1cccs1)C(=O)NO,active: 1
13,Nc1nc(F)nc2c1ncn2[C@@H]1O[C@H](COP(=O)(O)O)[C@@H](O)[C@@H]1O,active: 1
14,CC(=O)SCC(Cc1ccccc1)C(=O)NCC(=O)OCc1ccccc1 (stereo not given),active: 0.526
15,CCCCCCCCO,active: 0.338
